# Measurements as given in paper PMC4336329 (PLoS ONE, 2015).
# The whole screen tested about 310,000 compounds, of which about 14,000 (4.5%) showed an effect of 50% or more. The effect is printed as a negative number. The list shows a part of the results.
# Target: human ether-à-go-go-related gene (hERG) potassium channel (human, UniProt Q12809)
# Test: primary screen, population patch clamp on CHO cells stably expressing hERG
# 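Also: peak tail current of the secondary pulse compared with the same well before compound.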
# Chain of human ether-à-go-go-related gene (hERG) potassium channel (Q12809 whole entry, looked up): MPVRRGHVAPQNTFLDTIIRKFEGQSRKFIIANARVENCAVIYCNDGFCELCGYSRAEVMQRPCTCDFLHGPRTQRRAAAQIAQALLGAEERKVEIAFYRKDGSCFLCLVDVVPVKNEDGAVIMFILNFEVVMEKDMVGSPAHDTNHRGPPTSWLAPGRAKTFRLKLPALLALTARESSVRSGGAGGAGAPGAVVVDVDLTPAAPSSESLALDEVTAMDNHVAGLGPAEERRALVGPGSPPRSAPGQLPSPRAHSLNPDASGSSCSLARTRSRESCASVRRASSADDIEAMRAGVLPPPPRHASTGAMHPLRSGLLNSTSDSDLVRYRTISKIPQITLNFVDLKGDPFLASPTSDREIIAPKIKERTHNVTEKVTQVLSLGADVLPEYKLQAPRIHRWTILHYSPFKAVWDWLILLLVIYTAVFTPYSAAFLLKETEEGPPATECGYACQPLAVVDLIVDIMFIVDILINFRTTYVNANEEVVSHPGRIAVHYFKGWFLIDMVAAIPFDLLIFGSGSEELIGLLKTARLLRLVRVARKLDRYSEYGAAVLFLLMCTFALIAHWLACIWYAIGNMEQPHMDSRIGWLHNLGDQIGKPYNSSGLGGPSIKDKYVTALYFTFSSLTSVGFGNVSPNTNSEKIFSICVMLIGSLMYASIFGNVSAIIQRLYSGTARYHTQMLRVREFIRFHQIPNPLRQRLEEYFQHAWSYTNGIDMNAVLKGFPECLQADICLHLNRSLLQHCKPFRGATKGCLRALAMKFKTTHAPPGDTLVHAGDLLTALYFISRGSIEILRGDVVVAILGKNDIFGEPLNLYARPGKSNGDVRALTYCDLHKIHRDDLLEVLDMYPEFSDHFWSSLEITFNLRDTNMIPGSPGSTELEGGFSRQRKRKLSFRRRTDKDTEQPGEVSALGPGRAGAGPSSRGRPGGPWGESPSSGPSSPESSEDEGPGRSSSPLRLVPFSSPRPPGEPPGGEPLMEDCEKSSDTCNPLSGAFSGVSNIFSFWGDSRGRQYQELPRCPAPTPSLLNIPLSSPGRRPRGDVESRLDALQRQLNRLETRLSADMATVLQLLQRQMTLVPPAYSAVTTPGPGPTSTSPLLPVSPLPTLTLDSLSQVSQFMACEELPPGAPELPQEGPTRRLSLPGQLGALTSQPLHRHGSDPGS
row,SMILES,"hERG current change (%, negative = inhibition) at 10uM [%]"
1,CC1CCN(C(=O)Cn2ncc3c4ccccc4n(C)c3c2=O)CC1,-3.92
2,CC(=O)N/C(=C\c1ccc(C)cc1)C(=O)O,5.32
3,COc1ccc(/C(C)=N/NC(=S)NCCc2ccccc2)c(O)c1,18.9
4,O=C(/C=C/c1ccc([N+](=O)[O-])cc1)NCc1ccc2c(c1)OCO2,10.7
5,NNC(=O)Cc1cn(-c2ncc(C(F)(F)F)cc2Cl)c2ccccc12,-23.1
6,C/C(=N\NC(=O)c1cccc(S(=O)(=O)Nc2ccccc2Cl)c1)c1ccco1,-8.49
7,O=c1ccc(Cl)n[nH]1,18.1
8,CC(=O)N1CCC(CCCC2CCN(C(C)=O)CC2)CC1,5.66
9,COc1ccc(C(C(=O)NC2CCCC2)N(CCO)C(=O)Cn2nnc(-c3ccc(C)o3)n2)cc1 (centres unmarked),7.13
10,CCNC(=O)c1ccccc1SCC(=O)Nc1ccc(F)cc1,-1.03
11,COc1ccc(C(CNC(=O)Nc2ccccc2)N2CCN(C)CC2)cc1 (centres unmarked),-12.8
12,CCCn1nnnc1SCC(=O)N1CCCCC1,18.7
13,O=C(COC(=O)c1ccccc1O)Nc1cccc(S(=O)(=O)NC2=NCCCCC2)c1,-2.03
14,CCOc1ccc(NC(=S)NC(=O)c2ccco2)cc1,13.6
15,COc1ccc(N2C(=O)CCC2=O)c(OC)c1,20.7
16,CSc1ccc(CCNC(=O)C2CCCN(c3nn4c(=O)cc(C)nc4s3)C2)cc1 (centres unmarked),-35.1
17,COc1ccccc1N1CCN(C(=O)CSc2nc3ccccc3c(=O)n2CC2CCCO2)CC1 (centres unmarked),-67.6
18,CCOc1nc(N2CCOCC2)nc(N2CCOCC2)n1,55.2
19,CCCn1nnnc1NC(=O)COc1ccc(Cl)cc1C,-0.704
20,CCOC(=O)N1CCN(C(=O)CCN2C(=O)COc3ccccc32)CC1,0.87
21,Cc1cc(C)nc(Nc2ccc(C)c([N+](=O)[O-])c2)n1,22.2
22,CN1OC(COC(=O)c2ccc(Cl)cc2Cl)CC1c1ccccc1 (centres unmarked),9.07
23,COc1ccc(N2C(=O)C(CC(=O)Nc3ccccc3)N(Cc3cccs3)C2=O)cc1 (centres unmarked),-4.12

row,SMILES,"hERG current change (%, negative = inhibition) at 10uM [%]"
1,CC(C)(C)OC(=O)NCCCCCO,6.77
2,O=S(=O)(c1ccc(N2CCN(Cc3ccccc3)CC2)nc1)N1CCCC1,-14.8
3,CN(C)CCCNC(=O)c1ccc(Oc2ccccc2)cc1.Cl,22.6
4,Cc1cc(OCCCCn2ccnc2)cc(C)c1Cl.Cl,-31
5,CC1=CC(=C(C#N)C#N)C=C(C)N1Cc1ccccc1,12.3
6,COc1ccc(-c2nc(CS(=O)CC(=O)NC3CCCC(C)C3C)c(C)o2)cc1OC (centres unmarked),7.15
7,CN(Cc1nccn1C)C(=O)c1cc(COc2cccc(C(F)(F)F)c2)on1,-13.8
8,CN(C)C(=O)C#Cc1ccccc1,6.5
9,CC1CCC(C(=O)NC(C(=O)NCc2cccnc2)C(C)C)CC1 (centres unmarked),-4.92
10,CCOC(=O)N1CCN(c2nc3ccccc3nc2C(C#N)S(=O)(=O)c2ccc(C)cc2)CC1 (centres unmarked),-2.3
11,O=C(O)c1oc2ccccc2c1CSCc1ccccc1,0.44
12,CCC(C(N)=NCCc1ccc(OC)c(OC)c1)c1ccccc1.Cl (centres unmarked),-6.24
13,CC(=O)/C=C/c1ccccc1O,13.7
14,O=C1N/C(=C/c2ccc(N3CCOCC3)o2)C(=O)N1c1ccccc1,-10
15,COC(=O)[C@H](CCSC)NC(=O)NCc1ccc(S(N)(=O)=O)cc1,8.26
16,O=C(Nc1ccc(-c2ccco2)cc1)C1CCCN(Cc2ccc(CO)o2)C1 (centres unmarked),-15.5
17,CC(=O)C1=C(C)NC(=O)NC1c1cccc([N+](=O)[O-])c1O (centres unmarked),54.7
18,CC1CCCCC1NC(=O)C1CCC(CNc2c(N3CCCCC3)c(=O)c2=O)CC1 (centres unmarked),10
19,CCOC(=O)C1CCN(C(=O)c2cc(C)n(C(C)(C)C)n2)CC1,9.19
20,CCC1CCCCN1S(=O)(=O)c1ccc(S(=O)(=O)N2CCN(S(=O)(=O)CC)CC2)cc1 (centres unmarked),-10.7
21,C/C(=N\NC(=O)C1CCCC1)c1ccc(Cl)cc1,6.21
22,COCCCNC(=S)N1CCN(c2nc(-c3ccc(F)cc3)cs2)CC1,-0.949
23,COC(=O)C1=C(C(=O)OC)[C@@H]2N(C)c3ccccc3[C@@]23C[C@@H](CO)N=C3N1,15

row,SMILES,"hERG current change (%, negative = inhibition) at 10uM [%]"
1,CCOc1ccc(NC(=O)CN(C)CC(=O)Nc2ccccc2SC)cc1OCC,-9.63
2,Cc1cc(NC(=O)CCCSc2nc(-c3ccco3)cc(C(F)(F)F)n2)n(-c2ccccc2)n1,-0.233
3,Cc1ccccc1OCCN=Cc1c(O)n(C)c(=O)n(C)c1=O,-3.36
4,CC(=O)c1ccc(NC2=NCCCS2)cc1,13.3
5,CCc1nnc(NC(=O)Cc2ccc(S(=O)(=O)N3CCCCC3)cc2)s1,3.63
6,Cc1ccccc1N(CC(=O)O)S(C)(=O)=O,14.6
7,COc1ccc(C)cc1NC(=O)C(c1ccccc1)N1CCNC(=O)C1 (centres unmarked),-5.31
8,CCCCCCCc1n[nH]c(=S)n1Cc1ccccc1,5.44
9,CCOC(=O)C1CCCN(S(=O)(=O)c2cc(Br)cc3c2N(C(C)=O)CC3)C1 (centres unmarked),-11.8
10,Cc1cc(Cl)ccc1NC(=O)c1ccc2c(c1)OCO2,10.7
11,COc1ccc(/C(O)=C2/C(=O)C(=O)N(CCCC(=O)O)C2c2ccc(OC)cc2)cc1 (centres unmarked),11.7
12,CCc1cccc(NS(=O)(=O)c2cccc3cccnc23)c1,7.55
13,CN(C(=O)CC1C(=O)NCCN1Cc1ccc(F)cc1)C1CCOCC1 (centres unmarked),5.65
14,Cc1ccc(NP(=O)(Nc2ccc(C)cc2)Nc2ccc(C)cc2)cc1,7.58
15,ONC(=Nc1ccccc1)c1ccc(Cl)cc1,-2.91
16,Cc1ccc(OCC(=O)O/N=C(\N)c2ccncc2)cc1C,-2.3
17,COc1ccc(CCn2c(N)cc(=O)[nH]c2=S)cc1OC,-3.39
18,O=C(O)c1ccc(N=NN2CCCCC2)cc1,9.38
19,CC(C)c1nnc(NC(=O)CSc2nnc(-c3ccco3)o2)s1,5.38
20,COc1ccccc1CCNS(=O)(=O)c1cc2c3c(c1)CCN3C(=O)CC2,4.12
21,CNC(=S)N(CCN(C)C)Cc1cc2cc3c(cc2[nH]c1=O)OCO3,0.993
22,Cc1cccnc1NC(=O)C(C)Oc1ccccc1 (centres unmarked),13.5
23,C=CCN1C(=O)c2ccc(C(=O)N(C)Cc3ccc(C)o3)cc2C1=O,3.81

row,SMILES,"hERG current change (%, negative = inhibition) at 10uM [%]"
1,CNc1nc(Cl)nc(NC(C)(C)C)n1,0.796
2,COC(=O)c1ccc(N(CC(=O)NC2CCCC2)C(=O)CNC(=O)c2ccco2)cc1,-11.2
3,CCc1cccc(NC(=O)C2CCN(S(=O)(=O)c3ccc4[nH]c(=O)ccc4c3)CC2)c1,3.41
4,CC(C)(CC(=O)O)CC(=O)NCc1c(Cl)cccc1Sc1ccc(Cl)cc1,-2.93
5,Cc1cccc(-n2c(O)c(C=Nc3c(C)n(C)n(-c4ccccc4)c3=O)c3ccccc3c2=O)n1,-8.58
6,COc1cc(NC(=O)CSc2ccccc2)c(C(=O)O)cc1OC,26.2
7,Cc1nn(C(C)C(=O)N2CCN(c3ccccn3)CC2)c(=O)c2cc3occc3n12 (centres unmarked),-7.58
8,COc1ccc(S(=O)(=O)NCc2cc(=O)n(C)c(=O)n2C)cc1F,7.64
9,CCC(C)N(C(=O)COC(=O)c1nc2nc(C)cc(C)n2n1)C1CCS(=O)(=O)C1 (centres unmarked),9.86
10,O=C(c1cc(COc2ccc3ncccc3c2)on1)N1CCC(O)CC1,11.4
11,COc1cc(NC(=O)CSc2nnc3ccc(-c4ccncc4)nn23)cc(OC)c1,-33.2
12,COc1cc(-c2nc(C)c(C(C)=O)n2O)ccc1OCC(=O)Nc1ccc(F)cc1,-10.9
13,Cc1ccc(-n2c(O)c(C=NC3CCCCC3N)c(=O)[nH]c2=O)cc1C (centres unmarked),-1.25
14,CCc1ccc(OCC(=O)N2c3ccccc3CCc3ccccc32)cc1,-12.6
15,CCOCCCN1C(=O)C(O)=C(C(C)=O)C1c1cccs1 (centres unmarked),3.04
16,CC1(C)Cc2nc3[nH]c(=S)n(-c4ccccc4)c(=O)c3cc2CO1,20.3
17,CC(C)(C)c1ccc(S(=O)(=O)Nc2cccc(C3OCCCO3)c2)cc1,1.79
18,COc1ccccc1Oc1ccc(Oc2ccccc2OC)cc1,27.7
19,CC(C)n1c(=S)[nH]c2ccccc21,7.82
20,CCCCCCCNC(=O)C1(CC2CC(c3ccc(Cl)cc3)=NO2)CCN(C(=O)Cc2ccc(F)cc2)CC1 (centres unmarked),-11
21,COc1cc(C(=O)NCCOc2cc(C)cc(C)c2)cc(OC)c1OC,-6.59
22,C=C(C)Cn1c(CCNC(=O)C(C)(C)C)nc2ccccc21,10
23,O=C(Nc1ccc(S(=O)(=O)Nc2nccs2)cc1)c1cccc(N2C(=O)c3ccccc3C2=O)c1,6.31
